In PubChem BioAssay AID1347120 (National Center for Advancing Translational Sciences (NCATS), 2019):
The whole screen tested about 390,000 compounds, of which about 930 (0.24%) were called active. Inconclusive results, whose numbers are uncertain, are shown with a selection of clear calls. Calls follow the shape of the dose curve; as a rule, active = well fitted activation curve with a large enough effect; inconclusive = small, poorly fitted or top-dose-only effect; inactive = no such curve, though single readings can be large or run the other way. Potencies beside an inconclusive call are fits to weak or partial responses and may not hold up.

Assay: qHTS for Suppressors of FUS Proteinopathy: Primary screen using FUS-linked yeast assay; also: nearly all actives have a fitted effect of over 55% in size;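 as to growth rescue (activation): plate controls were DMSO vehicle for no effect and reference control for full effect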
Settings: S. cerevisiae FUS-expressing, OD600, 24 h; Potency: growth rescue; growth rescue (activation): at 76.6 µM (top of the series)
Procedure, shortened: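 S. cerevisiae expressing FUS from galactose induction served as the toxicity model. Growth after 24hr at 30C, read as absorbance at 600 nm, indicates suppression of toxicity; compounds dosed at several concentrations.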
Potency is read from the fitted curve at half-maximal effect; tags tell the direction and shape of the fitted curve.

Row | SMILES | Potency | growth rescue (activation)
1 | CSc1ccc(N/N=C(/C#N)S(=O)(=O)C(C)(C)C)cc1 | inactive | 
2 | Cc1ccc(-c2nn(-c3ccccc3)cc2/C=N/NS(=O)(=O)c2ccccc2)cc1 | inconclusive: 31.6 µM [activator, single point] | 
3 | O=C(CSc1nc(O)c(Cc2ccccc2)c(=O)[nH]1)c1ccccc1 | inactive | 
4 | COc1ccc(CNC(=O)C2CSC(=O)C2)cc1 (centres undefined) | inconclusive: 28.2 µM [activator, partial curve, poor fit] | 
5 | CCOC(=O)c1c(NC(=O)c2cc(=O)c3ccc(C)cc3o2)sc(C)c1C | inactive | 
6 | CN(C)c1ccc(CNC(=O)CCCn2ccc3cc(S(=O)(=O)N4CCCC4)ccc32)cc1 | inconclusive: 50.1 µM [activator, single point] | 
7 | COc1cc(/C=C2\SC(=S)N(Nc3ncc(C(F)(F)F)cc3Cl)C2=O)cc(OC)c1OC | inconclusive: 22.4 µM [activator, partial curve, poor fit] | 
8 | CSc1ccccc1NC(=O)Cn1nc([N+](=O)[O-])c(Cl)c1C | inactive | 
9 | COc1cc(C(=O)Nc2ccc3c(c2)ncn3C)cc(OC)c1OC | inactive | 
10 | Cc1ccc(Cc2nc3ccccc3nc2SCC(=O)N2CCCCC2C)cc1 (centres undefined) | inconclusive: 28.2 µM [activator, single point] | 
11 | C=CCN(C(=O)CNC(=O)c1ccco1)C(C(=O)NC1CCCCC1)c1ccc(F)cc1 (centres undefined) | inconclusive: 6.31 µM [activator, full curve] | 
12 | N#C/C(=C\c1c(Oc2ccc(Br)cc2)nc2ccccn2c1=O)c1nc2ccccc2s1 | inconclusive: 12.6 µM [activator, partial curve] | 
13 | CCCC(=O)OCCNc1cc(Sc2nc3ccccc3[nH]2)c2nonc2c1[N+](=O)[O-] | inconclusive: 39.8 µM [activator, partial curve, poor fit] | 
14 | O=C(CCc1nnc2ccc(NCc3ccccc3Cl)nn12)NCC1CCN(C2CCCC2)C1 (centres undefined) | inconclusive: 3.98 µM [activator, full curve] | 
15 | CCSc1nnc2c(n1)OC(C)(C)Nc1ccccc1-2 |  | inconclusive: 18% [activator]
16 | CCOc1cc2c(cc1OCC)C(c1c(F)cccc1Cl)CC(=O)N2 (centres undefined) | inactive | 
17 | Cc1ccc(S(=O)(=O)N2CCN(S(=O)(=O)N3CCCCC3)CC2)c(C)c1 | inactive | 
18 | C#CCNC(=O)C[C@@H]1C[C@@]2(C(=O)OCC)CCCC=C2N(CCCCCCCC)C1=O | active: 10 µM | 
19 | CCOC(=O)c1c(S(=O)(=O)N2CCC(C(=O)N3CCN(c4cc(C)ccc4C)CC3)CC2)c(C)n(C)c1C | inconclusive: 25.1 µM [activator, single point] | 
20 | O=C(C[C@@H]1C/C=C\C[C@@H](Cc2ccc(F)cc2)C(=O)OC[C@H]2CCCN2C1=O)NCCO | inconclusive: 35.5 µM [activator, single point] | 
21 | CCN(CC)S(=O)(=O)c1ccc(N2CCOCC2)c(NC(=O)CCC2CCCCC2)c1 | inconclusive: 31.6 µM [activator, single point] | 
22 | Cc1ccc(/C=C/C(=O)Nc2cccc(S(=O)(=O)N3CCOCC3)c2)o1 | inconclusive: 17.8 µM [activator, partial curve, poor fit] | 

Row | SMILES | Potency | growth rescue (activation)
23 | CCn1c2ccccc2c2cc(C=NNC(=O)c3ccoc3C)ccc21 | inactive | 
24 | CCO[C@@H]1OC(C(=O)N2CCCCCCC2)=C[C@H](c2ccc(C(F)(F)F)cc2)[C@H]1CCCO | inconclusive: 44.7 µM [activator, single point] | 
25 | CCc1ccccc1N1CSC2=C(C#N)C(c3ccccc3F)CC(=O)N2C1 (centres undefined) | inactive | 
26 | CCOC(=O)c1[nH]c2ccc(OC)cc2c1NS(=O)(=O)c1ccc(Cl)s1 | inactive | 
27 | Cc1ccc(NC(=O)NCc2ccc3[nH]c(C)cc3c2)cc1 | inconclusive: 8.91 µM [activator, partial curve] | 
28 | CC(C)(C)C(=O)OC1=CN(Cc2ccccc2)S(=O)(=O)c2ccccc21 | inconclusive: 17.8 µM [activator, partial curve, poor fit] | 
29 | COC(=O)C1=CN(c2ccc(OC)cc2)C(N)=C(C#N)C1c1ccc(OC)cc1 (centres undefined) | inconclusive: 31.6 µM [activator, single point] | 
30 | CCCCN(C)C(=O)c1cc2cc3cc(OC)ccc3nc2o1 | inactive | 
31 | Cc1csc2ncnc(N3CCN(C(=O)Nc4ccc(OC(F)(F)F)cc4)CC3)c12 | inconclusive: 50.1 µM [activator, single point] | 
32 | CC(=O)C1=C(O)C(=O)N(c2ccc(F)cc2)C1c1ccc(C)cc1 (centres undefined) | inactive | 
33 | CC1=CC(C)(C)Nc2ccc(OC(=O)CN3C(=O)c4ccccc4C3=O)cc21 | inconclusive: 11.2 µM [activator, partial curve] | 
34 | CS(=O)(=O)N1CCN(c2nnc(-c3ccccc3)c3ccccc23)CC1 | inactive | 
35 | Cc1ccsc1CN(C(=O)c1oc2ccccc2c1C)C1CCS(=O)(=O)C1 (centres undefined) | inactive | 
36 | Cc1ccc(SCCNC(=S)Nc2ccc(C)c(C)c2)cc1 | inactive | 
37 | Cc1cccc(C)c1NC(=O)CN(C)C(=O)c1cccc(S(=O)(=O)N2CCN(c3ccc(F)cc3)CC2)c1 | inconclusive: 31.6 µM [activator, single point] | 
38 | CCCCSc1nc(O)c(C2OC(=O)c3c2ccc(OC)c3OC)c(=O)n1-c1ccccc1 (centres undefined) | inconclusive: 44.7 µM [activator, single point] | 
39 | CC(=O)Nc1ccc(S(=O)(=O)NCCC(=O)OC(C)C(=O)c2ccc(C)cc2)cc1 (centres undefined) | inactive | 
40 | Cc1ccc(S(=O)(=O)N2CCC(=O)N([C@H](COCc3ccc(Cl)cc3)C(C)C)CC2)cc1 | inconclusive: 25.1 µM [activator, partial curve, poor fit] | 
41 | Cc1ccc(Cl)cc1C1=CC(=O)C[C@H](c2ccc(F)cc2)C1 | inactive | 
42 | O=S(=O)(CC1NCCc2ccccc21)NCCc1ccccc1 (centres undefined) | inactive | 
43 | COc1ccc(Nc2nc(N)nc(CSC(=S)N3CCN(c4ccccc4)CC3)n2)cc1 | inconclusive: 20 µM [activator, partial curve, poor fit] | 
44 | COc1ccc(Cn2c(O)c(/C=N/NC(=O)c3cccnc3)c3ccccc3c2=O)cc1 | inconclusive: 28.2 µM [activator, partial curve, poor fit] | 
